According to PubChem BioAssay AID588855 (National Center for Advancing Translational Sciences (NCATS), 2011):
Among all 410,000 compounds or so, about 5,000 (1.2%) were called active. The inconclusive results got no clear call from the source; some entries with a clear call stand among them for comparison. Calls follow the shape of the dose curve; as a rule, active = well fitted inhibition curve with a large enough effect; inconclusive = small, poorly fitted or top-dose-only effect; inactive = no such curve, though single readings can be large or run the other way. A potency beside an inconclusive call is a rough fit, not a confirmed value.

Experiment: qHTS for Inhibitors of TGF-b; also: nearly all actives have a fitted effect of over 65% in size
Settings: HepG2 CAGA-GFP TGF-b/SMAD3 reporter, GFP fluorescence, 18 h, TGF-beta stimulated, 500 pg/mL final; series mostly up to 46.1 µM; activity, negative = inhibition: at the top concentration
How it was run: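 Inhibition was scored as loss of TGF-beta-induced (500 pg/mL final, 18 hours, 37 degrees C) GFP in HEPG2 cells carrying a CAGA-GFP reporter, in DMEM with 1% FBS. Well GFP was summed per cell; Activity was normalised to unstimulated and stimulated DMSO wells, then concentration-response fitting.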
% is scaled to controls: 0 for no effect and ±100 for the full control effect; potency is read from the fitted curve at half-maximal effect; tags tell the direction and shape of the fitted curve.

Row | SMILES | Potency | activity, negative = inhibition
1 | CN1C(=O)C(C)(C)c2cc(S(=O)(=O)NCCc3ccc(Cl)cc3)ccc21 | inconclusive: 3.98 µM [inhibitor, single point] | –
2 | Cc1ccc2nsnc2c1NC(=S)NC(=O)c1ccco1 | inconclusive: 35.5 µM [inhibitor, single point] | –
3 | Nc1nc(SCc2ccccc2)c2ncn(Cc3ccccc3)c2n1 | – | inactive: -15.2%
4 | CC(=O)CCC(=O)NC1CCCc2c1cnn2-c1ccc(C(C)(C)C)cc1 (configuration not stated) | – | inactive: 5.9%
5 | CCCN1CCN(CCCNC(=O)CN2C(=O)c3cccnc3Oc3ccc(C)cc32)CC1 | – | inactive: 0.507%
6 | O=C(NCCCc1nc2ccccc2n1Cc1ccccc1)C1CCCCC1 | inconclusive: 7.94 µM [inhibitor, partial curve, poor fit] | –
7 | CC1CCC(C(C)C)C(OC(=O)Cn2c(-c3ccc(Cl)cc3)[n+](C)c3ccccc32)C1 (configuration not stated) | inconclusive: 14.1 µM [inhibitor, partial curve, poor fit] | –
8 | COc1ccc(OCc2cc(C(=O)N(Cc3nccn3C)C(C)C)no2)c2ccccc12 | inconclusive: 10 µM [inhibitor, partial curve, poor fit] | –
9 | CCN1CCOC(=O)C1CC(=O)Nc1ccc(C(C)=O)cc1 (configuration not stated) | inconclusive: 35.5 µM [inhibitor, single point] | –
10 | O=C(NCc1ccco1)c1ccc2c(c1)S(=O)(=O)c1ccccc1C2=O | inconclusive: 10 µM [inhibitor, partial curve, poor fit] | –
11 | CCC(=O)N1CCC1(C)C(=O)Nc1ncc(C)s1 (configuration not stated) | – | inactive: 3.13%
12 | Cc1c(Cl)c([N+](=O)[O-])nn1CCCC(=O)Nc1cccnc1 | – | inactive: -27.5%
13 | Cc1ccccc1-c1ccc(CN2C(C)C(=O)N(Cc3cn(Cc4ccco4)nn3)CCS2(=O)=O)cc1 (configuration not stated) | inconclusive: 12.6 µM [inhibitor, partial curve, poor fit] | –
14 | CCc1nc2c(OCCc3cccc(OC)c3)cccn2c1N(C)C(=O)c1ccc(OC)cc1 | – | inactive: 35.1%
15 | O=Nc1c(O)n(Cc2cccc(Cl)c2)c2ccccc12 | – | inactive: -28.7%
16 | CCCCCCCCCC[n+]1ccc(/C=C/c2c(C)[nH]c3ccccc23)c2ccccc21 | active: 2.51 µM | –
17 | CCn1c(=N)n(CC(=O)C(C)(C)C)c2ccccc21 | inconclusive: 12.6 µM [inhibitor, partial curve, poor fit] | –
18 | CCCCN1C(=O)C(CC(=O)NC(c2ccccc2)c2ccccc2)CC(C(=O)N(CC)CC)=C1C (configuration not stated) | – | inactive: 5.18%
19 | C#CCOCCOCCOCCNc1nc(N2CCN(C(=O)[C@H]([C@@H](C)CC)n3cc([C@@H](N)CC(C)C)nn3)CC2)nc(N2CCN(C(=O)[C@H](Cc3ccc(O)cc3)n3cc([C@@H](N)C(C)CC)nn3)CC2)n1 (some centres not stated) | – | inactive: -4.6%
20 | CCO[C@H]1OC(C(=O)NCc2nc3ccccc3[nH]2)=C[C@@H](C2CCCCC2)[C@@H]1CCCO | inconclusive: 35.5 µM [inhibitor, single point] | –
21 | COC(=O)c1ccccc1NS(=O)(=O)c1c(C)noc1C | – | inactive: 0.308%
22 | COc1ccc(-n2c(SCC#N)nnc2-c2ccc(NS(=O)(=O)c3ccc(C)cc3)cc2)cc1 | – | inactive: -14.5%
23 | CN(C)CCCN(C(=O)c1ccco1)c1nc2ccc(Cl)cc2s1 | inconclusive: 35.5 µM [inhibitor, single point] | –

Row | SMILES | Potency | activity, negative = inhibition
24 | Cc1nc(C)c(-c2csc(NCCc3ccccc3)n2)s1 | inconclusive: 35.5 µM [inhibitor, single point] | –
25 | Cc1ccc(Nc2nc(C)cc(C)c2C(N)=O)c(C)c1 | inconclusive: 35.5 µM [inhibitor, single point] | –
26 | CC[C@@]1(C(=O)OC)N[C@H](CN(C)C(C)=O)[C@@H]2C(=O)N(Cc3ccccc3)C(=O)[C@@H]21 | inconclusive: 6.31 µM [inhibitor, full curve, poor fit] | –
27 | COC(=O)c1ccc(Cn2c(SCC(=O)NCc3ccccc3)nc3ccccc32)cc1 | – | inactive: -8.87%
28 | CC(=O)N1c2ccc(S(=O)(=O)NCCC(=O)Nc3cccc(Cl)c3)cc2CC1C (configuration not stated) | – | inactive: -9.92%
29 | OC(CNCCc1ccc(C(F)(F)F)cc1)COc1ccc2ccccc2c1 (configuration not stated) | inconclusive: 35.5 µM [inhibitor, single point] | –
30 | O=C(Cn1nc(Cl)nc1Cl)c1ccc2c(c1)OCCO2 | – | inactive: -14.9%
31 | CCOc1cc(C(=O)NN=C2CCCC2)cc(OCC)c1OCC | inconclusive: 11.2 µM [inhibitor, single point] | –
32 | Cc1cccc(CNC(=O)c2sc3ncnc(N(C)C4CCCCC4)c3c2C)c1 | inconclusive: 22.4 µM [inhibitor, single point] | –
33 | CN(Cc1c(C(=O)N/N=C/c2ccc(O)cc2)nnn1-c1nonc1N)C1CCCCC1 | inconclusive: 35.5 µM [inhibitor, single point] | –
34 | COc1ccc(-c2nc3c(C)cc(Br)cn3c2CC(C)(C)C)cc1OC | inconclusive: 10 µM [inhibitor, partial curve, poor fit] | –
35 | Cc1nn(-c2ccccc2)c2nc(C3CC3)cc(C(=O)NCc3ccccc3Cl)c12 | – | inactive: -0.741%
36 | COc1cccc(CN(C)C(=O)CN2C(=O)NC3(CCCc4ccccc43)C2=O)c1 (configuration not stated) | inconclusive: 28.2 µM [inhibitor, single point] | –
37 | O=C(C1CC1)N1CCN(c2nc3c(F)cc(F)cc3s2)CC1 | inconclusive: 6.31 µM [inhibitor, full curve, poor fit] | –
38 | Cc1cc(Cl)ccc1OCC(=O)N(Cc1ccc(N(C)C)cc1)CC1CCCO1 (configuration not stated) | inconclusive: 28.2 µM [inhibitor, single point] | –
39 | CCOC(=O)c1ccc(NC(=O)CSc2nccn2Cc2ccc(OC)cc2)cc1 | inconclusive: 11.2 µM [inhibitor, partial curve, poor fit] | –
40 | CCCCCN1C(C(=O)c2ccccc2)=C(NC(C)=O)c2ccccc2S1(=O)=O | inconclusive: 35.5 µM [inhibitor, partial curve, poor fit] | –
41 | CC(C)(CNC(=O)c1cccc(S(=O)(=O)Nc2ccc(SC(F)F)cc2)c1)N1CCOCC1 | – | inactive: 0.952%
42 | CNc1oc(-c2ccc(COc3ccc(C)cc3)o2)nc1C#N | – | inactive: -7.58%
43 | O=C(c1cc(F)ccc1F)C1CCCN(Cc2cccn2-c2ccccn2)C1 (configuration not stated) | – | inactive: -19.3%
44 | Cc1ccc(NS(=O)(=O)c2ccc(C(=O)Nc3nncs3)cc2)cc1 | inconclusive: 15.8 µM [inhibitor, single point] | –
45 | COc1ccc(OCc2nc3c4c(-c5ccc(OC)cc5)c(-c5ccc(OC)cc5)oc4ncn3n2)cc1 | – | inactive: 9.2%
46 | CCOC(=O)N=Nc1c2ccccc2c2nc3no[nH]c3nc12 | active: 0.708 µM | –

Row | SMILES | Potency | activity, negative = inhibition
47 | O=C(c1ccc(Br)cc1)c1coc2ccc(O)cc12 | inconclusive: 35.5 µM [inhibitor, single point] | –
48 | COc1ccc(S(=O)(=O)N2CCCCCC2)cc1NC(=O)c1ccccc1S(C)(=O)=O | – | inactive: -0.951%
49 | COC(=O)C1=C(C)N=C2SC(C#N)=C(N)N2C1c1ccc(OCc2ccccc2)cc1 (configuration not stated) | inconclusive: 25.1 µM [inhibitor, single point] | –
50 | CCN(Cc1ccccc1)C(=O)c1cc(-c2ccc(OC)c(OC)c2)nc2ccccc12 | inconclusive: 6.31 µM [inhibitor, single point] | –
51 | O=C(Nc1ccc2ccccc2c1)c1ccccc1O | inconclusive: 10 µM [inhibitor, partial curve, poor fit] | –
52 | Cc1cc(C)c(Cn2c3ccccc3c3cnn(CC(=O)NCCN4CCOCC4)c(=O)c32)c(C)c1 | inconclusive: 20 µM [inhibitor, single point] | –
53 | CSc1ncnc2c1ncn2CCCN1CCN(C(=O)C2CC2)CC1 | – | inactive: 5.85%
54 | Cc1ccc(S(=O)(=O)Cn2nnnc2C(CC(C)C)N2CCN(c3ccccc3)CC2)cc1 (configuration not stated) | inconclusive: 35.5 µM [inhibitor, single point] | –
55 | Nc1ccc2cc3[nH]c4cc(N)ccc4c3nc2c1 | inconclusive: 35.5 µM [inhibitor, single point] | –
56 | CCOc1ccccc1NC(=O)c1ccc2c(Cl)c3c(nc2c1)CCCC3 | – | inactive: -1.71%
57 | CCO[C@@H]1OC(C(=O)N2CCN(Cc3ccc4c(c3)OCO4)CC2)=C[C@H](C2CCCCC2)[C@H]1CCCO | inconclusive: 7.08 µM [inhibitor, partial curve, poor fit] | –
58 | O=C(Nc1ccc2c(c1)OCO2)C1Cc2c(-c3ccc4c(c3)OCO4)ccnc2O1 (configuration not stated) | inconclusive: 5.01 µM [inhibitor, full curve, poor fit] | –
59 | COc1ccc(C)cc1NC(=O)c1ccoc1C | inconclusive: 4.47 µM [inhibitor, full curve, poor fit] | –
60 | Cc1ccc(C(=O)Nc2onc(C)c2C#N)cc1 | inconclusive: 5.62 µM [inhibitor, single point] | –
61 | Cc1ccccc1C(=O)N1CCC(C(=O)N(CC(C)C)c2c(N)n(CC(C)C)c(=O)[nH]c2=O)CC1 | inconclusive: 6.31 µM [inhibitor, single point] | –
62 | CS(=O)(=O)N1CCN(C2C3CC4CC(C3)CC2C4)CC1 (configuration not stated) | – | inactive: -7.55%
63 | CCOC(=O)[C@H]1[C@H]2COc3ccc(C)cc3[C@@H]2N2C(=O)c3ccc(Cl)cc3NC(=O)[C@@]12C | – | inactive: -4.28%
64 | CC1(C)C(C=C(Cl)Cl)C1C(=O)N(Cc1ccccc1Cl)C1CCS(=O)(=O)C1 (configuration not stated) | inconclusive: 35.5 µM [inhibitor, single point] | –
65 | CCn1c(SCc2cccc(C)c2)nnc1-c1ccccc1 | inconclusive: 35.5 µM [inhibitor, single point] | –
66 | Cc1ccc(C(=O)N2C3C=CC(C3)C2(C(F)(F)F)C(F)(F)F)cc1 (configuration not stated) | inconclusive: 0.794 µM [inhibitor, full curve, poor fit] | –
67 | C#CCOCCOCCOCCNc1nc(N2CCN(C(=O)C([C@@H](C)O)n3cc([C@@H](N)CCCCN)nn3)CC2)nc(N2CCN(C(=O)[C@H](CO)n3cc([C@@H](N)C(C)C)nn3)CC2)n1 (some centres not stated) | inconclusive: 0.0891 µM [inhibitor, full curve, poor fit] | –
